Legend:
[1] = system: wild-type spider mites (Tetranychus urticae strain RW); test: Activity against wild-type spider mites on French bean
Protocol: (§1) A study was performed to determine the activity of NRRL B-50550 against abamectin-resistant spider mites (Tetranychus urticae strain NL), as compared to wild-type spider mites (Tetranychus urticae strain RW). French bean plants were treated with a wettable powder of a fermentation product of NRRL B-50550 prepared as described in the last paragraph of Example 9, at the rates shown in Table 17 below after dilution. Plants were infested one day prior to treatment with 50-100 of either strain NL or RW, and assessed for the presence of mites seven and fourteen days after treatment.

[2] = system: abamectin-resistant spider mites (Tetranychus urticae strain NL); test: Activity against abamectin-resistant spider mites on French bean
Protocol: as §1

## Abamectin
[1]; 0.16 ppm
  7 days Wild Type Mites (% control): 99 % control
  14 days Wild Type Mites (% control): 100 % control
[1]; 0.8 ppm
  7 days Wild Type Mites (% control): 100 % control
  14 days Wild Type Mites (% control): 100 % control
[1]; 4 ppm
  7 days Wild Type Mites (% control): 100 % control
  14 days Wild Type Mites (% control): 100 % control
[1]; 20 ppm
  7 days Wild Type Mites (% control): 100 % control
  14 days Wild Type Mites (% control): 100 % control
[2]; 0.16 ppm
  7 days Resistant Mites (% control): 0 % control
  14 days Resistant Mites (% control): 0 % control
[2]; 0.8 ppm
  7 days Resistant Mites (% control): 80 % control
  14 days Resistant Mites (% control): 0 % control
[2]; 4 ppm
  7 days Resistant Mites (% control): 99 % control
  14 days Resistant Mites (% control): 80 % control
[2]; 20 ppm
  7 days Resistant Mites (% control): 99 % control
  14 days Resistant Mites (% control): 99 % control

From patent US20140105862A1, “STREPTOMYCES MICROFLAVUS STRAINS AND METHODS OF THEIR USE TO CONTROL PLANT DISEASES AND PESTS” (priority 2012, published 2014)
